Experimental data taken from article PMC4336329 (PLoS ONE, 2015).
In all, about 310,000 compounds went through this assay and about 2,200 (0.71%) showed an effect of 50% or more. The effect is printed as a negative number. Some of the results follow.

Target: human ether-à-go-go-related gene (hERG) potassium channel (human, UniProt Q12809)
Assay: primary screen, population patch clamp on CHO cells stably expressing hERG

human ether-à-go-go-related gene (hERG) potassium channel, sequence (Q12809 whole entry, looked up): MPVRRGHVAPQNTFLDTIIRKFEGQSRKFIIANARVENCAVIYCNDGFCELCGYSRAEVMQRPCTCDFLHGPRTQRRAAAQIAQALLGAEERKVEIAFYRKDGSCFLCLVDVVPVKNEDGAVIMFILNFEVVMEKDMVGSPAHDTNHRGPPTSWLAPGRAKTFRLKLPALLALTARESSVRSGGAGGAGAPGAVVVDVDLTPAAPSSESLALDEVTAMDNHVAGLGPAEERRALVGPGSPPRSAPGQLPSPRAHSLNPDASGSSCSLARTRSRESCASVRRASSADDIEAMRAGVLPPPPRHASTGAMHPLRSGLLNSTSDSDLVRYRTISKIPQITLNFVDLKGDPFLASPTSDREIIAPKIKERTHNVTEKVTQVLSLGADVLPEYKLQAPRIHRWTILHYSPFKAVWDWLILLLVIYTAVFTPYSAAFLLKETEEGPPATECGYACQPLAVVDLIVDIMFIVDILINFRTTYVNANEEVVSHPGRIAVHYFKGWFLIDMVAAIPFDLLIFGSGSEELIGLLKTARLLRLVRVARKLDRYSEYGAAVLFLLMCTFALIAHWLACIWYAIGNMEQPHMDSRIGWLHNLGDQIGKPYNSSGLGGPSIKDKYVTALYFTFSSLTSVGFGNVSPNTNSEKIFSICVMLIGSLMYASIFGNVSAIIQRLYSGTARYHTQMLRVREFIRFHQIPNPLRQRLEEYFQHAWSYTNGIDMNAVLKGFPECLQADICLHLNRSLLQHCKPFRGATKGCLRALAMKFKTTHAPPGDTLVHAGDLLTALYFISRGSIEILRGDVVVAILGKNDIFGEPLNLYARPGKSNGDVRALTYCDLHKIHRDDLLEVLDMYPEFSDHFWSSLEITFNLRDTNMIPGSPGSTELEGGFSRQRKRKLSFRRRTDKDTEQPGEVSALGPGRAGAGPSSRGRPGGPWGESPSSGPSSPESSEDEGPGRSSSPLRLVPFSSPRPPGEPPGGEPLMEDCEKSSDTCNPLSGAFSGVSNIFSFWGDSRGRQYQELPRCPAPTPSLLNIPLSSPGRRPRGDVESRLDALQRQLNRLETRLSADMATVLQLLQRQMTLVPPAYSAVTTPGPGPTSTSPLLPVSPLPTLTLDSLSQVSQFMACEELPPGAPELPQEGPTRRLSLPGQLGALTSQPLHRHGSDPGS

Compound	hERG current change (%, negative = inhibition) at 1uM [%]
Cc1c(OCC(=O)NCC(O)c2ccccc2)ccc2c3c(c(=O)oc12)CCCC3 (stereo not shown)	1.64
COc1ccc(CN2CCn3ncc(C(=O)Nc4ccc(Cl)cc4Cl)c3C2=O)cc1	2.84
O=C(Oc1cccc([N+](=O)[O-])c1)c1cc(-c2ccccc2)nc2ccccc12	9.64
CC(Sc1nnc(C2CC2)n1C1CC1)C(=O)Nc1ccccc1C#N (stereo not shown)	0.842
O=C1CN(C(=O)COC(=O)c2oc3ccccc3c2COc2ccccc2)c2ccccc2N1	4.92
Cc1noc(N)c1C(=O)Nc1ccc(F)c(Cl)c1	4.28
O=C1CCC(c2ccccc2)(c2ccccc2)CC1	2.17
Cc1cc(NC(=O)c2cc(-c3ccccc3)on2)no1	12.4
Cc1c(C(=O)N(C)C)sc2nc(-c3ccccn3)[nH]c(=O)c12	-1.35
CC1CCCC(N2CCN(C(=O)c3cccc(F)c3)CC2)C1.O=C(O)C(=O)O (stereo not shown)	8.59
COc1ccccc1/C=C(/C(=O)OCC(=O)Nc1ccc(N(C)C)cc1)c1ccccc1	9.09
COCCN(C(=O)CCCC(=O)Nc1ccccn1)C(C(=O)NC1CCCC1)c1ccc(C)cc1 (stereo not shown)	6.24
CCN(CC)S(=O)(=O)c1ccc(N2Cc3ccccc3C2=N)cc1	1.09
Cc1ccccc1NC(=O)c1cc(S(=O)(=O)N2CCOCC2)cn1C	-6.38
CCN(CC)CCN(C(=O)c1cc2ccccc2cc1OC)c1nc2ccc(OC)cc2s1.Cl	13.9
O=C(Cc1ccc(-c2ccccc2)cc1)Nc1ncccc1O	11.9
COC(=O)Cc1c(C)c2ccc(OCC(=O)N3CCCC3)c(C)c2oc1=O	9.03
NS(=O)(=O)c1ccc(CCNC(c2ccccc2)c2ccccc2)cc1	-1.63
COc1cccc(Nc2nnc(SCC(=O)N(CC(C)C)CC(C)C)s2)c1	14.3
Cc1ccc(S(=O)(=O)NNC(=O)C2CCN(S(=O)(=O)c3ccc(C)cc3)CC2)cc1	10.8
COc1ccc(CCNC(=O)CCCn2c(=O)c3cccn3c3cccnc32)c(OC)c1OC	-8.16
O=C1CN(C(=S)Nc2ccc(OC(F)F)cc2)CCN1	9.99
COC(=O)C1CCN(CC(N)=O)CC1	8.38
CC(=NCCN1CCOCC1)c1c(O)n(Cc2ccccc2)c(=O)[nH]c1=O	-20.6
O=C(CN1CCN(C(=O)CN2C(=O)NC3(CCCC3)C2=O)CC1)Nc1cccc(F)c1	6.32
CCN(CC)c1ccc(/C=N/N2CCN(c3ccccc3OC)CC2)cc1	12.9
CCOc1cc(CNCc2cccs2)ccc1OCC(=O)NC(C)(C)C.Cl	10.6
Fc1cccc(NC(=S)N2CCN(c3ccccn3)CC2)c1	12.6

Compound	hERG current change (%, negative = inhibition) at 1uM [%]
Cc1ccc(Cn2c(NCCCn3ccnc3)nc3c2c(=O)n(C)c(=O)n3C)cc1	-2.85
CCc1ccc(C(=O)C(C)OC(=O)c2cccc(S(=O)(=O)N3CCOCC3)c2)cc1 (stereo not shown)	6.87
O=C(NCc1ccc(F)cc1)C1CCN(S(=O)(=O)c2cccnc2)CC1	7.26
O=C(OCC(=O)N1CCc2ccccc2C1)c1ccc(OC(F)F)cc1	-17.4
COc1ccc(C(=O)Nc2nc(-c3ccccc3)c(C(C)=O)s2)c(OC)c1	4.55
CN(CCc1ccccn1)C(=O)CCC1CCCN(C(=O)c2ccccn2)C1 (stereo not shown)	11.1
O=c1cc(O)nc(SCc2ccccc2)n1-c1ccccc1	8.41
Cc1cccc(N(CC(=O)NC(C)(C)C)C(=O)CCC(=O)Nc2nccs2)c1	7.95
COc1ccc(C(C)NC(=O)c2ccccc2Br)cc1OC (stereo not shown)	19.7
CC1CCN(C(=O)COC(=O)c2cccc(S(=O)(=O)N(C)c3ccccc3)c2)CC1	1.78
CC1(C)CC(O)C(C)(C)N1O (stereo not shown)	10.4
COCCn1c(=O)[nH]c2cc(C(=O)OC)ccc2c1=O	14.3
Cc1cc2c(cc1C)C(c1cccc([N+](=O)[O-])c1)CC(=O)N2 (stereo not shown)	9.38
COc1ccc(Cc2nnc(SCC(=O)N3CCCC(C)C3)o2)cc1 (stereo not shown)	14.6
Cc1c(NC(=O)C2C3C=CC(C3)C2C(=O)O)c(=O)n(-c2ccccc2)n1C (stereo not shown)	11.3
Cc1n[nH]c(C)c1S(=O)(=O)N1CCCC(C(=O)NCc2ccccc2Cl)C1 (stereo not shown)	-3.67
Cc1ccccc1Cn1nnc(-c2ccc(F)cc2)n1	11.9
Cc1ccc(NC(=O)CN2C(=O)c3ccccc3C2=O)c(C)c1	5.66
CC1(C)Cc2c(c(N3CCCC3)nc3sc4c(N5CCN(CCO)CC5)ncnc4c23)CO1	6.67
Cc1c(C(=O)Nc2c(N)nc(SCC(=O)NCC3CCCO3)[nH]c2=O)cccc1[N+](=O)[O-] (stereo not shown)	11.1
CC(C)C(C(=O)NC1CCCC1)N(CC1CCCO1)C(=O)CNS(=O)(=O)c1ccc(F)cc1 (stereo not shown)	0.403
O=C1C(=O)N(CCN2CCOCC2)C(c2ccc(Cl)cc2)/C1=C(/O)c1ccc(S(=O)(=O)N2CCOCC2)cc1 (stereo not shown)	21
CCCN(N=Nc1cccc([N+](=O)[O-])c1)c1cccc([N+](=O)[O-])c1	6.48
CCOc1ncccc1C(=O)OCC(=O)NCCc1ccc(OC)cc1	6.01
CCOc1cccc(-c2nnc3sc(C4CCCCC4)nn23)c1	6.38
Cc1cccc(NC(=S)N(CCN(C)C)C(C)c2ccccn2)c1 (stereo not shown)	-1.77
CCNc1c(NS(=O)(=O)c2ccc([N+](=O)[O-])cc2)c(=O)oc2ccccc12	16.4
